# Article PMC10726135
# Some of the results follow. At the low end of the ranking the order means little. Measured with an extract: partners may take part in the binding.
# Biological target: T1, HNF4alpha8 (COS-7 nuclear extract) (UniProt P41235-5)
# T1 sequence: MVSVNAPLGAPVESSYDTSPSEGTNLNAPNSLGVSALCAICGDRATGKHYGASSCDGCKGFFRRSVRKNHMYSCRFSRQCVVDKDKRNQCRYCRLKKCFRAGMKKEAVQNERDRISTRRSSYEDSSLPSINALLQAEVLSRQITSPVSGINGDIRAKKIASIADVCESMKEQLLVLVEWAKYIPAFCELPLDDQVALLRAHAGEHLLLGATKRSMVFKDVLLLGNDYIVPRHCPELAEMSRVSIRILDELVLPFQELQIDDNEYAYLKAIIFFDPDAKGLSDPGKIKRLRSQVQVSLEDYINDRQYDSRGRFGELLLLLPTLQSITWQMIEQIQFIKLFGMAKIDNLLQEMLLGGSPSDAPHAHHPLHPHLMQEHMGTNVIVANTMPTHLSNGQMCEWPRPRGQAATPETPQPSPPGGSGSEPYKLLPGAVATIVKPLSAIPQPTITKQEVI
# Assay: protein-binding microarray
# Conditions: COS-7 nuclear extract on double-stranded Agilent 4x180k PBM; binding buffer, salt, pH and temperature not given; high values mean tight binding; double strand, one strand shown; sequences stand for … in …GCCTAGGGAGATTAGAGTATCGGTCGA
row,Sequence,binding signal (log2 normalized intensity)
1,GGGCGCCTCCCGGAGGACCCGACCGGAGAG,-1.23
2,GGACTAGTAGAGTGGGGAGGTAGGGCAAGA,-1.41
3,CCCAGGGAGAGCTGGACTTTCATCTGAGTC,4.04
4,GAAACATTTTACTCACCCCTTGCTGAGTGG,1.49
5,ACACTGATACAGCATGGCCCAGGGACTCAG,-1.32
6,GGTGAAAGATAAGGGCTAGTTCATTAAACA,-1.36
7,TCAAAAGCTGTGTGCTCCTGTAGAATGACC,2.7
8,TAGTGTGTCAGGGAAGGCTAGCATTCCTGC,-1.33
9,CAGTCAGACACGCCTTGCACAAATTTCAGA,-1.22
10,ACTTTATATTCCTTTGTATCTGTACCTTAA,2.81
11,AAGGTCGTGTGCTTATCACATCTATCTGCC,0.746
12,TCATTGAGCCCTCCCCTTGTCTGATAAGAT,2.69
13,GGCCTTTACCCCTTGAGTTTGAACTTTGAC,7.11
14,GGCCTCTCAGGTCAGGGAAGACTGATAAGA,-1.35
15,TCAGCCTGGCTGTGTAGACATCACCTGCTC,-0.923
16,TTTACTTAACCTTTGATCATATGCATTTCC,4.77
17,TCATTTTTTTGATTACCTTAGGGGGAAACA,0.347
18,CTGATATAGAACACTTGTACATACTTTTGG,0.97
19,TAGGCATTGTCTTGAAAGATAAAGTGTCTC,1.48
20,GTCTGAATTCTAGTCCTATCACTGTCTAGC,-1.28
21,ACTGCCTCTTACAACGAGGTGCCAGAAACC,-1.25
22,ACTGCCCTTTGGTGCCTCTTTTTTCTTGTT,2.6
23,TGTGATAGGCATGCAAACTTTGTTTAATGA,0.318
24,CCCGCCTAACCTTGAGGAGCCCTATCCGCA,-1.31
25,TTGTCCAGCAGACACGGGCAGGTGAGAGGG,-1.31

row,Sequence,binding signal (log2 normalized intensity)
1,TGCTCCACGCAAACACAAAAGGATCACAGT,-1.32
2,TAGACACTGGGGACTAGTAGAGTGGGGAGG,-1.3
3,AGTCTAGATAATCTAAAGCCGAAAGAGGGT,-1.11
4,ACAGCCTTTTGAGTTTCTACCATAGACCCT,0.861
5,GTGGTGGTTCTTGTTTCATTGCACAGTTAC,2.22
6,GCTCGGCCCCAGTCCCCCGGACCAGGCCGG,2.8
7,CCAGAATGTTCAAAAGTGTGTTGGTTTCCT,1.43
8,AAGGTGGTTGCTGTTATCTTCATTTATAGA,0.624
9,TCAGGAAGGAATAAAAGGCTGTTCTGATGC,-1.32
10,AGAAGAAACCTTTGCCCAACAGGATTAGTG,1.37
11,GAGTCTCCACTATGACCTGTGCTTTGCCAT,1.64
12,ACCCGTCCGCTTGATGCCTGTTGCTCAGAA,-1.13
13,TTGGAATACATGGAATGCTCTCTCTCTTTT,0.995
14,ACTTCTCTCGGCCTTAAGAGTCAAAGGGCA,4.56
15,ACCACCTTCCCCCATCCCCAACAAAGCTCT,4.85
16,GGGGCAGAGTGAGCAGCACTTTTGGAGTTT,2.17
17,TAGCCTTTTTGCCCACAGACTAGACCATCA,-1.24
18,CAATTTGATTTGTATGATCTTGGGTATATC,1.49
19,TGTTACCTTTGGACTGTCCTTTGCTAGATT,3.82
20,ACAGCGAGAGTCCTCTTGGTTTATGTTCAC,1.15
21,AGTAGTTCTTCTGGTTAGTTTTTCAATGGC,1.86
22,AGAAGCTTGGTATGTCTGATGAATAGAAAG,0.138
23,CTTCTTGTACCTCTGGTGATTACCAGTTAT,1.21
24,AAACCTTATCTATTTGCTCCCAATTTCTAC,1.45
25,ATGTCAACATCAGGGTGCCAGCAGGTGGTC,1.78

row,Sequence,binding signal (log2 normalized intensity)
1,AATGAGAATGGCCAGAGTTCCTGTGCAAGC,-1.33
2,CCTGTTTTACAGGACATAGTCCTCTGCATA,0.281
3,TTGTTATTTATTGGCCAGTAGCTCTGAGTT,1.28
4,GGCATGAGGTTCTTGTAAGGTTCTTGTATC,1.79
5,GCCCTGCTCAGGGAATGTGGGTCCACATTC,3.18
6,AGTAACCTGACCCCCAGTGGAATGTGCCCT,4.61
7,AAGGCAGAGGAAAGCCCTAGCTGACTGCGT,-1.07
8,TGCCTGAGATTCCTTCAAAGATTGTGAGAC,0.779
9,TCACTGGGAGGGTGGGTTATCAGTAAGAGC,0.0261
10,CTTCAGGTCAAGAGGGCCTCTGCTTGTCTT,0.151
11,CTACTACTTGACCTTTGAAACATATCCAGA,6.31
12,TCACGTGGCCCTGGCATTTGGCTCAAAGGC,-1.38
13,TATCCAGGCCACGCTGCTAATCCTACTTTA,-1.3
14,ATTTTTAGGCTTGTTTATTCAGAGTTAGCT,-1.2
15,ATTGAGATGGTAACCACACCAAGGGGCCCC,-1.29
16,GGTGGACTTTGGCCGTGAAGCCGTCCTGTC,5.87
17,CTAAATGGCAATGGCTGCAGCTCTTCCACG,-1.31
18,CTTTTGTGTGTTTACATAACCTGCCCAAAG,0.458
19,CTCAATTATAACTCATGTTCAAACAGTGGT,1.14
20,TTTTGTGTGCTAGATACTGGAGATATGTTG,0.786
21,AATGGCAACATGTGGGCAAATAGGATTAGG,-1.45
22,GCCACTTTCACAAATCATTACTATCTGCTG,-1.33
23,CAGAGGACAGGCTAATGAGATAATGCTGGT,-1.09
